# Data taken from the antibiotic and cytotoxicity screens of Wong et al. (2023).
# Some of the results follow.
# Tested on: HepG2
# Assay: cytotoxicity call (relative viability < 0.9)
# Settings: 10 µM
row,Structure (SMILES),cytotoxicity call
1,C[C@@H]1CN([C@@H](C)CO)C(=O)c2cc(NC(=O)Nc3ccc(F)cc3)ccc2O[C@@H](C)CCCCO[C@@H]1CN(C)Cc1ccc2c(c1)OCO2,active
2,C[C@H](C(=O)N(C)C[C@@H]1OCc2ccccc2-c2c(n(C)c3ccccc23)C(=O)N([C@@H](C)CO)C[C@H]1C)c1ccccc1,inactive
3,Cc1noc(C)c1S(=O)(=O)Nc1cccc2c1O[C@@H](CN(C)S(=O)(=O)c1cn(C)cn1)[C@@H](C)CN([C@@H](C)CO)C2=O,inactive
4,COc1ccc(NC(=O)Nc2ccc3c(c2)C(=O)N([C@H](C)CO)C[C@H](C)[C@H](CN(C)S(=O)(=O)c2cccs2)OCCCC[C@@H](C)O3)cc1,inactive
5,CN([NH2+][O-])c1ccc(O)c(O)c1,inactive
6,C[C@H]1CN([C@@H](C)CO)C(=O)Cc2cc(NC(=O)c3ccncc3)ccc2O[C@H]1CN(C)C(=O)NC1CCCCC1,inactive
7,COc1cc(OC)c2c(c1Cl)OC1(C2=O)C(O)=CC(=O)CC1C (configuration not stated),inactive

# Tested on: S. aureus RN4220
# Assay: growth inhibition call (relative growth <= 0.2)
# Settings: 50 µM
row,Structure (SMILES),growth inhibition call
1,C[C@@H]1CCCCO[C@@H](CN(C)C(=O)Nc2cccc3ccccc23)[C@H](C)CN([C@H](C)CO)C(=O)c2cc(NC(=O)Nc3ccc(F)cc3)ccc2O1,inactive
2,Cc1noc(C)c1NC(=O)Nc1ccc2c(c1)C(=O)N([C@@H](C)CO)C[C@H](C)[C@@H](CN(C)Cc1ccc(Cl)c(Cl)c1)OCCCC[C@@H](C)O2,inactive
3,C[C@H]1CC/C=C\[C@H]2O[C@@]34C=CCN(Cn5nnc6ccccc65)C(=O)[C@H]3N(CCCCCCO)C(=O)[C@@H]4[C@@H]2C(=O)O1,inactive
4,C[C@@H]1CN([C@H](C)CO)C(=O)c2cc(NC(=O)CCCN(C)C)ccc2O[C@H]1CN(C)Cc1ccc2c(c1)OCO2,inactive
5,C[C@@H]1CN([C@H](C)CO)C(=O)c2cccc(NS(C)(=O)=O)c2O[C@H]1CN(C)Cc1ccc2c(c1)OCO2,inactive
6,COc1ccc(CN(C)C[C@@H]2OCCCC[C@H](C)Oc3ccc(NC(=O)CCC(F)(F)F)cc3C(=O)N([C@H](C)CO)C[C@@H]2C)cc1,inactive
7,CS(=O)(=O)c1ccc(C(O)C(CF)NC(=O)C(Cl)Cl)cc1 (configuration not stated),active
8,CCc1nc2ccc(C(=O)N3CCN(S(=O)(=O)CC)CC3)cn2c1N(C=O)Cc1ccc(OC)cc1,inactive
9,Cc1ccc(S(=O)(=O)N(C)C[C@H]2Oc3ccc(NC(=O)Nc4ccc(C(F)(F)F)cc4)cc3CC(=O)N([C@H](C)CO)C[C@H]2C)cc1,inactive
10,C[C@H]1CCCCO[C@H](CN(C)Cc2ccc(C(=O)O)cc2)[C@@H](C)CN([C@@H](C)CO)C(=O)c2cc(NS(=O)(=O)c3ccccc3)ccc2O1,inactive
11,CCS(=O)(=O)N1Cc2nccn2C[C@H](Cn2ncccc2=O)C1,inactive
12,C[C@H](CO)N1C[C@H](C)[C@@H](CN(C)Cc2ccc(Oc3ccccc3)cc2)Oc2c(NC(=O)c3nc4ccccc4s3)cccc2C1=O,inactive
13,Nc1ccc(C(=O)N2CCOCC2)cc1,inactive
14,CN(C)CC(=O)N1CCOC[C@@H]1c1nccc(N2CCOCC2)n1,inactive
15,C[C@H]1CN([C@@H](C)CO)C(=O)CCCn2cc(nn2)CO[C@H]1CN(C)C(=O)Nc1ccc(N2CCCCC2)cc1,inactive
16,CO[C@@H](CN(C)S(=O)(=O)c1ccc(F)cc1)[C@H](C)CN([C@H](C)CO)S(=O)(=O)c1cccc(Cl)c1,inactive
17,Clc1ccc2c(c1)C(N1CCNCC1)=Nc1ccccc1O2,inactive
18,Cc1ccc(S(=O)(=O)N(C)C[C@@H]2Oc3ccc(NS(=O)(=O)c4ccccc4)cc3CC(=O)N([C@@H](C)CO)C[C@@H]2C)cc1,inactive
19,CC(C)NC(=O)N(C)C[C@H]1Oc2cc(C#Cc3ccc(F)cc3)ccc2S(=O)(=O)N([C@H](C)CO)C[C@@H]1C,inactive
20,COc1ccc(NC(=O)N(C)C[C@@H]2Oc3c(NC(=O)c4cnccn4)cccc3C(=O)N([C@@H](C)CO)C[C@H]2C)cc1,inactive

row,Structure (SMILES),growth inhibition call
1,O=C(O)c1csc2ccccc12,inactive
2,Cc1cccc(C)c1NC(=O)[C@@H](C)N,inactive
3,CC(C)NC(=O)Nc1ccc2c(c1)C(=O)N(C)[C@H]1CC[C@@H](CC(=O)NCc3ccc(F)cc3)O[C@@H]1CO2,inactive
4,CCOC(=O)c1nonc1N,inactive
5,CC(C)NC(=O)N(C)C[C@@H]1Oc2ccc(NC(=O)Cn3cnnn3)cc2C(=O)N([C@@H](C)CO)C[C@H]1C,inactive
6,C[C@H](CO)N1C[C@H](C)[C@H](CN(C)Cc2ccc(Cl)c(Cl)c2)OCc2ccccc2-c2c(n(C)c3ccccc23)C1=O,inactive
7,C[C@@H]1CCn2cc(nn2)COC[C@H](Cc2ccccc2)NC(=O)[C@H](C)CCn2cc(nn2)COC[C@H](Cc2ccccc2)NC1=O,inactive
8,Cc1cc(C(=O)Nc2cccc3c2O[C@@H](CN(C)S(=O)(=O)c2cn(C)cn2)[C@H](C)CN([C@H](C)CO)C3=O)n(C)n1,inactive
9,CN(C)CCN1C[C@@H]2CN(C(=O)c3cnc[nH]3)C[C@H]2C1=O,inactive
10,C[C@@H]1CCCCO[C@H](CN(C)C(=O)Nc2ccc3c(c2)OCO3)[C@@H](C)CN([C@H](C)CO)C(=O)c2cc(NC(=O)CCC(F)(F)F)ccc2O1,inactive
11,C[C@@H]1CN([C@H](C)CO)C(=O)Cc2cc(NS(C)(=O)=O)ccc2O[C@@H]1CN(C)C(=O)Nc1ccc(C(F)(F)F)cc1,inactive
12,Cl.OC(c1cc(C(F)(F)F)nc2c(C(F)(F)F)cccc12)C1CCCCN1 (configuration not stated),inactive
13,CC(C)/C(=N/O)c1ccccc1,inactive
14,C[C@@H]1CN([C@@H](C)CO)C(=O)c2cc(NC(=O)Nc3ccc(F)cc3)ccc2O[C@@H](C)CCCCO[C@@H]1CN(C)Cc1ccc2c(c1)OCO2,inactive
15,C[C@H](C(=O)N(C)C[C@@H]1OCc2ccccc2-c2c(n(C)c3ccccc23)C(=O)N([C@@H](C)CO)C[C@H]1C)c1ccccc1,inactive
16,Cc1noc(C)c1S(=O)(=O)Nc1cccc2c1O[C@@H](CN(C)S(=O)(=O)c1cn(C)cn1)[C@@H](C)CN([C@@H](C)CO)C2=O,inactive
17,COc1ccc(NC(=O)Nc2ccc3c(c2)C(=O)N([C@H](C)CO)C[C@H](C)[C@H](CN(C)S(=O)(=O)c2cccs2)OCCCC[C@@H](C)O3)cc1,inactive
18,CN([NH2+][O-])c1ccc(O)c(O)c1,inactive
19,C[C@H]1CN([C@@H](C)CO)C(=O)Cc2cc(NC(=O)c3ccncc3)ccc2O[C@H]1CN(C)C(=O)NC1CCCCC1,inactive
20,COc1cc(OC)c2c(c1Cl)OC1(C2=O)C(O)=CC(=O)CC1C (configuration not stated),inactive
